B1: Ab121: anti-pro/latent myostatin antibody; CDRs in Tables 2d-f, variable domains Table 3, chains Table 4 (antibody)
heavy: QVTLRESGPALVKPTQTLTLTCTVSGFSFSTSGMVVNWIRQPPGKALEWLAMIDWDADNIVYNSALKSRLTISKDTSKNQVVLTMTNMDPVDTATYYCAKDTGSGWFDAFDIWGQGTMVTVSSASTKGPSVFPLAPCSRSTSESTAALGCLVKDYFPEPVTVSWNSGALTSGVHTFPAVLQSSGLYSLSSVVTVPSSSLGTKTYTCNVDHKPSNTKVDKRV[human IgG4 Fc with S228P (EU numbers) left out]
light: DIVMTQSPDSLAVSLGERATINCKSSQSVLYSSTNQNFLAWYQQKPGQPPKLLIYQASTLQNGVPDRFSGSGSGTDFTLTISSLQAEDVAVYYCQQYLTTPYTFGGGTKVEIKRTVAAPSVFIFPPSDEQLKSGTASVVCLLNNFYPREAKVQWKVDNALQSGNSQESVTEQDSKDSTYSLSSTLTLSKADYEKHKVYACEVTHQGLSSPVTKSFNRGEC
B2: Ab127: anti-pro/latent myostatin antibody; CDRs in Tables 2d-f, variable domains Table 3, chains Table 4 (antibody)
heavy: EVQLVESGGGLVQPGGSLRLSCTASGFTFGSYPMDWVRQAPGKGLEWVSYISGRGDVTYYADSVKGRFTISRDNAKNTLYLQMNSLRAEDTAVYYCAKVQSPSELLWFGELLPVDYWGQGTLVTVSSASTKGPSVFPLAPCSRSTSESTAALGCLVKDYFPEPVTVSWNSGALTSGVHTFPAVLQSSGLYSLSSVVTVPSSSLGTKTYTCNVDHKPSNTKVDKRV[human IgG4 Fc with S228P (EU numbers) left out]
light: DIQMTQSPSSLSASVGDRVTITCQASQVIKTWLNWYQQKPGKAPKLLIYDASNLQRGVPSRFSGSGSGTDFTFTISSLQPEDIATYYCQQSASTPITFGGGTKVEIKRTVAAPSVFIFPPSDEQLKSGTASVVCLLNNFYPREAKVQWKVDNALQSGNSQESVTEQDSKDSTYSLSSTLTLSKADYEKHKVYACEVTHQGLSSPVTKSFNRGEC
B3: Ab128: anti-pro/latent myostatin antibody; CDRs in Tables 2d-f, variable domains Table 3, chains Table 4 (antibody)
heavy: EVQLVESGGGLVQPGGSLRLSCTASGFTLSSYSMDWVRQAPGKGLEWVSYITGSGDTTYYADSVKGRFTISRDNAKNTLYLQMNSLRAEDTAVYYCARGFGWISGWAEDYFDYWGQGTLVTVSSASTKGPSVFPLAPCSRSTSESTAALGCLVKDYFPEPVTVSWNSGALTSGVHTFPAVLQSSGLYSLSSVVTVPSSSLGTKTYTCNVDHKPSNTKVDKRV[human IgG4 Fc with S228P (EU numbers) left out]
light: DIQMTQSPSSLSASVGDRVTITCQASQSVYSYLNWYQQKPGKAPKLLIYGASRLEGGVPSRFSGSGSGTDFTFTISSLQPEDIATYYCQQHSTDQRTFGGGTKVEIKRTVAAPSVFIFPPSDEQLKSGTASVVCLLNNFYPREAKVQWKVDNALQSGNSQESVTEQDSKDSTYSLSSTLTLSKADYEKHKVYACEVTHQGLSSPVTKSFNRGEC

Columns and labels:
[1] = test system: biotinylated murine pro-myostatin; assay: Biacore 8k SPR binding affinity, murine pro-myostatin; parameters: species or system mouse
Source text: (§1) The Biacore™ 8 k SPR system was utilized to evaluate the binding affinity of myostatin antibodies to biotinylated human, murine, and cyno pro-myostatin. Biotin CAPture kit and sensor chips (Cytiva) were utilized in these experiments to immobilize the various antigens, followed by flowing a range of concentrations of each of the test antibodies.

[2] = test system: dexamethasone-induced muscle atrophy in C57BL6 male mice; assay: Dexamethasone-induced muscle atrophy mouse model; format: in vivo; details: 3 mg/kg/day; FIG. 6A, FIG. 9A
Source text: To evaluate in vivo efficacy of the novel myostatin-selective inhibitors disclosed herein, the ability of the antibodies to preserve lean muscle mass was examined in a dexamethasone-induced atrophy mouse model. An excess of glucocorticoids directly stimulates myostatin production via interactions with a glucocorticoid response element in the myostatin promoter, thus inducing loss of muscle mass. As shown herein, antibodies of the disclosure prevented glucocorticoid-induced muscle atrophy.
C57BL6 male mice (n=8) at 13-14 weeks of age were given normal drinking water or water containing dexamethasone at a concentration of 2.5 mg/kg (17.5 grams dexamethasone per liter of drinking water) to induce atrophy. […] Body weight was measured daily. Body composition was measured by qNMR to determine lean mass pre-dosing, at day 7, and at day 14. After 14 days of dexamethasone exposure, the animals were terminated, and body weight and gastrocnemius weight were measured. […]
C57BL6 male mice (n=8) at 13-14 weeks of age were given normal drinking water or water containing dexamethasone at a concentration of 2.5 mg/kg to induce atrophy. […] Muscle mass at days −1, 6 and 13 was measured using qNMR. At the end of the study (day 14), serum from each animal was collected and changes in body weight, body composition (qNMR), left and right gastrocnemius weight, and left and right quadriceps weight were measured. […]

[3] = test system: biotinylated human pro-myostatin; assay: Biacore 8k SPR binding affinity, human pro-myostatin
Source text: as §1

[4] = target: T1, biotinylated cyno pro-myostatin (Macaca fascicularis, UniProt Q95J86); assay: Biacore 8k SPR binding affinity, cyno pro-myostatin; parameters: species or system cynomolgus monkey
T1 construct: biotin (label)
Source text: as §1

Molecule	Ka [1] [M⁻¹ s⁻¹]	Kd (1/s) [1] [s⁻¹]	body weight of dexamethasone treated mice [2]	Ka [3] [M⁻¹ s⁻¹]	Kd (1/s) [3] [s⁻¹]	Ka (1/Ms) [4]
B1	3.24e+06	0.000608	maintained the body weight of the dexamethasone treated mice to a greater extent than Ab2	3.16e+06	0.000318	–
B2	815000	0.000265	–	813000	0.000213	8.21 E+05 1/Ms
B3	914000	0.000655	–	1.27e+06	0.000463	–

From patent US12338279B2, “Selective and potent inhibitory antibodies of myostatin activation” (SCHOLAR ROCK, INC., priority 2022, dated 2025)
